# Results as given in PubChem BioAssay (Tox21).
# Where “and” joins values, the source holds several entries; their conditions need not be identical. Equal values may be shown once. Inconclusive results, whose numbers are uncertain, are shown with a selection of clear calls. For some assays here: A potency beside an inconclusive call is a rough fit, not a confirmed value. Calls of active or inactive are those of the source. Unless noted, calls follow the shape of the dose curve; as a rule, active = well fitted curve in the direction sought with a large enough effect in the repeat runs; inconclusive = weak or mixed curves; inactive = no such curve, though single readings can be large; an effect the other way counts as inactive or inconclusive.
# Experiments:
# [1] = qHTS assay for small molecule agonists of the p53 signaling pathway (AID 651631; calls by dose curve; also: potency is read from the fitted curve at half-maximal effect; nearly all actives have a fitted effect of over 15% in size); conditions: HCT-116 p53RE-bla reporter, beta-lactamase FRET ratio, 16 h; activation: at 73.3 µM (top of the series) unless noted
# In short: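 Quantitative high-throughput format: 4,000 p53RE-bla HCT-116 cells/well, 5 h pre-incubation, 16 h compound exposure at 37 °C, 2 h room-temperature substrate step, fluorescence intensity measured.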
# [2] = qHTS assay to identify small molecule antagonists of the estrogen receptor alpha (ER-alpha) signaling pathway - cell viability counter screen (AID 743074; calls by dose curve;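 also: HEK293 cells carrying ER-alpha-UAS-bla reporter stimulated with 17beta-estradiol; potency is read from the fitted curve at half-maximal effect; nearly all actives have a fitted effect of over 45% in size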)
# [3] = qHTS assay to identify small molecule antagonists of the estrogen receptor alpha (ER-alpha) signaling pathway using the BG1 cell line - cell viability counter screen (AID 743081); conditions: BG1Luc4E2 viability, CellTiter-Fluor, 22 h; activity change, negative = cytotoxicity: at 70.3 µM (top of the series) unless noted;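 also: compound given together with 17beta-estradiol as the ER stimulus; nearly all actives have a fitted effect of over 45% in size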; also: potency is read from the fitted curve at half-maximal effect; as to activity change, negative = cytotoxicity: % is scaled to controls: 0 for no effect and ±100 for the full control effect
# [4] = qHTS assay for small molecule activators of the heat shock response signaling pathway (AID 743210; active = well fitted activation curve with a large enough effect in the signal ratio in the repeat runs, with a control signal flat, not every such curve was filed as active; inconclusive = weak or mixed curves; the % refers to the signal ratio; also: % is scaled to controls: 0 for no effect and ±100 for the full control effect); conditions: HeLa HSE-bla reporter, beta-lactamase ratio, 5 h; activation: at 62.6 µM (top of the series) unless noted
# In short: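 HSE-bla HeLa cells (beta-lactamase reporter under heat shock response elements), plated overnight, then exposed to compounds 5 h at 37 C; LiveBLAzer B/G FRET substrate added, 2.5 h at room temperature, fluorescence intensity read.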
# [5] = qHTS assay to identify small molecule antagonists of the peroxisome proliferator-activated receptor delta (PPARd) signaling pathway - cell viability counter screen (AID 743213); conditions: PPARd-bla HEK293H viability, CellTiter-Glo luminescence, 17 h; viability change, negative = cytotoxic: at 62 µM (top of the series) unless noted; also: nearly all actives have a fitted effect of over 50% in size; also: potency is read from the fitted curve at half-maximal effect
# In short: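 HEK293H PPARd UAS-bla cells, 5 h pre-incubation, compound + L165041 300 nM final, 17 h 37 C; B/G FRET substrate 2 h RT; then CellTiter-Glo 30 min RT, luminescence.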
# [6] = target: Nuclear receptor subfamily 1 group I member 2 (Homo sapiens) (UniProt O75469); test: Human pregnane X receptor (PXR) small molecule agonists, qHTS assay (AID 1346982); also: potency is read from the fitted curve at half-maximal effect; nearly all actives have a fitted effect of over 35% in size
# Chain of UniProt O75469 (O75469 whole entry, looked up): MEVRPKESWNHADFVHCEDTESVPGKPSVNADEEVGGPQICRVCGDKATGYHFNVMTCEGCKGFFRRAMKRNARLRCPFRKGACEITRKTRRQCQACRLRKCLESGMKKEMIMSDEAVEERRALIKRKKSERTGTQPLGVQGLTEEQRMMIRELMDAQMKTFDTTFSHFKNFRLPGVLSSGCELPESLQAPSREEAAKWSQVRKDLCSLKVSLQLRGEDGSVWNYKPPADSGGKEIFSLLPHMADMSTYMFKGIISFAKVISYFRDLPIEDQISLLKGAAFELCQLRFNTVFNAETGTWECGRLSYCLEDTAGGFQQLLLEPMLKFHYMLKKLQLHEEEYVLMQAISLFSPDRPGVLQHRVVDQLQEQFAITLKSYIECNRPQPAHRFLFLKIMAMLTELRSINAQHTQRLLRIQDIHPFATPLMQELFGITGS
# In short: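 PXR-Luc HepG2 reporter cells (CYP3A4-driven luciferase) in 5% charcoal-stripped FBS medium, plated 5 h before compound addition, then treated 24 h at 37C. Luciferase read by ONE-Glo luminescence after 30 min at room temperature.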
# [7] = qHTS RealTime-Glo MT Cell Viability Assay in HEK293 cells - 16 hour (AID 1224872); also: nearly all actives have a fitted effect of over 50% in size; also: potency is read from the fitted curve at half-maximal effect
# In short: (§1)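 Nonlytic real-time viability readout: viable cells convert prosubstrate to NanoLuc substrate, giving luminescence proportional to live cell number. HEK293, 600 cells/well, compound added after 5 h, continuous culture at 37 C.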
# [8] = qHTS assay for identifying genotoxic compounds that show differential cytotoxicity against isogenic chicken DT40 cell lines with known DNA damage response pathways - Rad54/Ku70 mutant cell line (AID 743015); conditions: DT40 Rad54/Ku70 mutant viability, CellTiter-Glo, 40 h; activity change, negative = cytotoxicity: at 66.8 µM (top of the series) unless noted; also: % is scaled to controls: 0 for no effect and ±100 for the full control effect; nearly all actives have a fitted effect of over 60% in size
# [9] = qHTS assay to identify small molecule agonists of the farnesoid-X-receptor (FXR) signaling pathway - cell viability counter screen (AID 743218); conditions: FXR-bla HEK293T viability, CellTiter-Glo luminescence, 16 h; viability change, negative = cytotoxic: at 62.6 µM (top of the series) unless noted; also: potency is read from the fitted curve at half-maximal effect; nearly all actives have a fitted effect of over 45% in size
# In short: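 FXR-UAS-bla HEK 293T cells exposed to compounds for 16 h at 37C. Cytotoxicity read in the same wells by CellTiter-Glo luminescence after 30 min at room temperature, following the beta-lactamase FRET read.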
# [10] = target: Vitamin D3 receptor (Homo sapiens) (UniProt P11473); test: qHTS assay to identify small molecule agonists of the vitamin D receptor (VDR) signaling pathway (AID 743222; calls by dose curve; also: % is scaled to controls: 0 for no effect and ±100 for the full control effect); conditions: HEK293T VDR-UAS-bla, beta-lactamase FRET ratio, 16 h; activation: at 63.5 µM (top of the series) unless noted
# Chain of UniProt P11473 (P11473 whole entry, looked up): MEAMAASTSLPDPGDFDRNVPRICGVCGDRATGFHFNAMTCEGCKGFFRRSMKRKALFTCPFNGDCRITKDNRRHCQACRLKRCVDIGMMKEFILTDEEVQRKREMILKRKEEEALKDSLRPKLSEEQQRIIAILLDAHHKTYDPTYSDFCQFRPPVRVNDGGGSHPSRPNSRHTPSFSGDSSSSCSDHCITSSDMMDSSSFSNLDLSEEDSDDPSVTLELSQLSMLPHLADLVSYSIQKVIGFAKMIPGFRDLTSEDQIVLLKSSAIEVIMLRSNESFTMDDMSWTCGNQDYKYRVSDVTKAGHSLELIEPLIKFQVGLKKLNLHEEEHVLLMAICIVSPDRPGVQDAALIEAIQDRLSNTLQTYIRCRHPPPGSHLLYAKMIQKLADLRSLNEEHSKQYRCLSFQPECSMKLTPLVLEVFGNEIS
# In short: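 VDR-bla cells plated 4 h at 37 C, then exposed to compounds for 16 h at 37 C. Beta-lactamase reporter activity measured by fluorescence after 2 h room-temperature loading with LiveBLAzer B/G FRET substrate.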
# [11] = qHTS RealTime-Glo MT Cell Viability Assay in HEK293 cells - 24 hour (AID 1224886); also: potency is read from the fitted curve at half-maximal effect; nearly all actives have a fitted effect of over 50% in size
# In short: as §1
# [12] = qHTS RealTime-Glo MT Cell Viability Assay in HEK293 cells - 8 hour (AID 1224887); also: nearly all actives have a fitted effect of over 50% in size; also: potency is read from the fitted curve at half-maximal effect
# In short: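 600 cells/well were plated with the nonlytic NanoLuc/prosubstrate reagent, pre-incubated 5 h, then given 23 nL of compound in DMSO. Incubation at 37 C for 40 h, with luminescence from viable-cell-reduced substrate read repeatedly from 0 h.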
# [13] = target: Estrogen receptor beta (Homo sapiens) (UniProt Q92731); test: qHTS assay to identify small molecule agonists of the estrogen receptor beta (ER-beta) signaling pathway (AID 1259377; active = well fitted activation curve with a large enough effect in the signal ratio in the repeat runs, not every such curve was filed as active; inconclusive = weak or mixed curves, or effect the other way; the % refers to the signal ratio; also: potency is read from the fitted curve at half-maximal effect); conditions: ER-beta-UAS-bla HEK293T, beta-lactamase FRET ratio, 16 h; activation: at 92.4 µM (top of the series) unless noted
# Chain of UniProt Q92731 (Q92731 whole entry, looked up): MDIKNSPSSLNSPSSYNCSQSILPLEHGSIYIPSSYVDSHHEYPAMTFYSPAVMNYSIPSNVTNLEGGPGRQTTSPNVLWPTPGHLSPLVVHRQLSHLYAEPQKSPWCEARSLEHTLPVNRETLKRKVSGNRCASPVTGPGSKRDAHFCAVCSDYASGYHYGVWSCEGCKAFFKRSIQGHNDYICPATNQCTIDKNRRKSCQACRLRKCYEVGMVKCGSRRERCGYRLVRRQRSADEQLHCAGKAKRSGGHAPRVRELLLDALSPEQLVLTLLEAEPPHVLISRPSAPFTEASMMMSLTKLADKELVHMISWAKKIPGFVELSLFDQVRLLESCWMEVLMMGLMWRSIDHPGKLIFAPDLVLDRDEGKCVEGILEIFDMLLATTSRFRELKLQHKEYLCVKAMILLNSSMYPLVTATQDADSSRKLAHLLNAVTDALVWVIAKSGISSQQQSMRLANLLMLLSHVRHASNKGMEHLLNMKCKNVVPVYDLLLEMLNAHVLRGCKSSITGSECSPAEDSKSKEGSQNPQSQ
# In short: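 Screening used GripTite ER-beta-UAS-bla cells held in 2% charcoal-stripped FBS medium. After overnight (16 hr) compound incubation at 37C, beta-lactamase activity was detected with a FRET substrate by fluorescence.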
# [14] = Caspase-3/7 induction in HepG2 cells by small molecules, qHTS cell viability counter screen (AID 1346981); also: potency is read from the fitted curve at half-maximal effect; nearly all actives have a fitted effect of over 30% in size
# In short: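 Wild-type HepG2 cells, 2,000/well, settled 5 hr at 37 C, 5% CO2 before compound addition. Viability read by CellTiter-Fluor fluorescence, reagent added after 16 hr compound exposure, then 1 hr at 37C, in the same wells as the caspase read.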
# [15] = qHTS assay to identify small molecule agonists of the estrogen receptor beta (ER-beta) signaling pathway - cell viability counter screen (AID 1259380); also: nearly all actives have a fitted effect of over 30% in size; also: potency is read from the fitted curve at half-maximal effect
# In short: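 ER-beta-UAS-bla HEK293T cells in medium with 2% charcoal-stripped FBS, pre-incubated 6 hr, then treated 16 hr at 37C. Cytotoxicity read in the same wells by CellTiter-Glo luminescence after 30 min at room temperature.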
# [16] = Caspase-3/7 induction in CHO-K1 cells by small molecules, qHTS cell viability counter screen (AID 1346979); also: % is scaled to controls: 0 for no effect and ±100 for the full control effect; nearly all actives have a fitted effect of over 35% in size
# In short: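 Multiplexed with Caspase-Glo 3/7 in CHO-K1 cells, this counter screen added CellTiter-Fluor after 16hr of compound exposure and recorded fluorescence 1hr later.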
# [17] = qHTS assay to identify small molecule antagonists of the thyroid receptor (TR) signaling pathway (AID 743065); also: nearly all actives have a fitted effect of over 55% in size; also: potency is read from the fitted curve at half-maximal effect
# In short: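 GH3.TRE-Luc rat pituitary cells (two TREs driving luciferase) were dosed with compound, then stimulated with 1 nM T3 (final) for 23.5 h at 37 C. ONE-Glo luminescence was the read-out, with CellTiter-Fluor fluorescence as the cytotoxicity counter-screen.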
# [18] = qHTS assay to identify small molecule antagonists of the vitamin D receptor (VDR) signaling pathway - cell viability counter screen (AID 743225); conditions: VDR-bla HEK293T viability, CellTiter-Glo luminescence, 16 h; viability change, negative = cytotoxic: at 61 µM (top of the series) unless noted; also: nearly all actives have a fitted effect of over 50% in size; also: potency is read from the fitted curve at half-maximal effect
# In short: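 Luminescent cell viability (CellTiter-Glo) in VDR-bla HEK 293T cells after 16 h compound exposure at 37C in the presence of 3 nM final 1-alpha,25-dihydroxy vitamin D3.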
# [19] = qHTS assay to identify small molecule agonists of the retinoic acid receptor (RAR) signaling pathway (AID 1159553); conditions: C3RL4 RARE luciferase reporter, agonist, 6 h; activation: at 73.3 µM (top of the series) unless noted; also: % is scaled to controls: 0 for no effect and ±100 for the full control effect
# In short: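 C3RL4 RARE-luciferase cells were seeded at 1,000/well and grown overnight at 37 C, then exposed to compounds for 6 hr at 37 C, 5% CO2. Luciferase reagent was added and luminescence was read after 30 min at room temperature.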
# Tags tell the direction and shape of the fitted curve or compound fluorescence and quenching.
compound,measurement,setting,value
CCOC(=O)OC(C)OC1=C(C(=O)Nc2ccccn2)N(C)S(=O)(=O)c2ccccc21 (stereo not drawn),Potency,[1],"inconclusive: 16.8 µM [activator, partial curve, poor fit]"
same,Potency,[2],"inconclusive: 26.8 µM [cytotoxic, single point]"
same,Potency,[3],inactive
CC(=O)CC(=O)OC(C)(C)C,Potency,[4],inactive
same,Potency,[5],inactive
same,Potency,[6],"inconclusive: 43.3 µM [activator, partial curve, poor fit]"
O=C(O)CC(O)C(=O)O (stereo not drawn),Potency,[3],"inconclusive: 0.0668 µM [rising, full curve, poor fit]"
same,Potency,[7],inactive
BrCCCCCBr,Potency,[8],inactive
same,Potency,[2],"inconclusive: 21.5 µM [cytotoxic, full curve, poor fit]"
O=C(CCCCCCC(=O)Nc1ccccc1)NO,Potency,[1],active: 750 nM and active: 668 nM
same,Potency,[3],"inconclusive: 11.9 µM [cytotoxic, full curve, poor fit]"
same,Potency,[4],inactive
same,Potency,[5],inactive
same,Potency,[9],"inconclusive: 7.5 µM [cytotoxic, partial curve]"
same,activation,[10],inconclusive: -19.3%
same,Potency,[11],active: 2.39 µM
same,Potency,[12],"inconclusive: 4.77 µM [cytotoxic, partial curve]"
same,Potency,[13],"inconclusive: 7.5 µM [rising, full curve]"
same,Potency,[14],"inconclusive: 13.3 µM [cytotoxic, partial curve]"
C=C1CC[C@H]2O[C@]2(C)CC[C@@H]2[C@@H]1CC2(C)C,Potency,[7],"inconclusive: 54.9 µM [cytotoxic, single point]"
same,Potency,[11],"inconclusive: 49 µM [cytotoxic, single point]"
same,Potency,[12],active: 49 µM
same,Potency,[15],inactive
same,Potency,[16],inactive
CC1(C)C2=CCCC(C)(C)[C@]23CC[C@H]1C3,Potency,[17],"inconclusive: 68.6 µM [inhibitor, partial curve, poor fit]"
same,Potency,[18],inconclusive: 49 µM [cytotoxic]
same,Potency,[12],inactive
N=C(N=C(N)N)N1CCOCC1,Potency,[8],inactive
same,Potency,[4],inactive
same,Potency,[19],inactive
same,Potency,[15],"inconclusive: 2.98 µM [cytotoxic, single point]"
O=C(O)/C=C/c1ccc(Cn2ccnc2)cc1,Potency,[4],inactive
same,Potency,[5],"inconclusive: 0.668 µM [cytotoxic, single point]"
CC(=O)OC/C=C/c1ccccc1,Potency,[17],inactive
same,Potency,[9],"inconclusive: 27.5 µM [rising, partial curve, poor fit]"
same,Potency,[10],inactive
same,"viability change, negative = cytotoxic",[18],inconclusive: -2.3% [cytotoxic]
